Reference: patent US20030004179A1, “Treating allergic and inflammatory conditions” (priority 2002, published 2003)

Test system: seasonal allergic rhinitis patients
Assay: Double-blinded, randomized clinical trials in seasonal allergic rhinitis patients

For `Clc1ccc2c(c1)CCc1cccnc1C2=C1CCNCC1` [Desloratadine, desloratadine], which Total symptom scores (5 mg once daily, adult and adolescent seasonal allergic rhinitis patients) is on record?
The Total symptom scores was “significantly reduced”.

And the “AM NOW total symptom score” value (24 hours after dose, before next day dose, entire dosage range)?
Its value is “Statistically significant (p<0.05) reductions were maintained for the full 24 hour dosing interval”.

What about the “Differences in effectiveness across subgroups defined by gender, age, or race” value (entire dosage range) of the same compound?
The value was “no significant differences”.
